Experimental data: the supplement of paper PMC7826260
Some of the results follow. The data describe in vitro nicking of single-stranded DNA by Rep domains at 3 µM enzyme and 37 °C for 1 h; the strands have 90 letters, of which the middle is given. Uncut reads are compared with the no-enzyme pool on a log2 scale; strong cutting gives strongly negative numbers. There is no active / inactive call. Because reads are shares of a total, they shift together; uncut strands gain when others are lost, and binding without cutting may add a little.

Key:
Assay in all cases: uncleaved DNA left, log2 of reads against the no-enzyme library (log2 ratio); higher = less cleavage (more negative = more Rep cleavage of the k-mer); sequences stand for … in CTCGTCCG…ACCGGAGA
[1] = tested on: T1, Rep nickase domain of Muscovy duck circovirus
T1 sequence (Rep 1-111, printed without the tag): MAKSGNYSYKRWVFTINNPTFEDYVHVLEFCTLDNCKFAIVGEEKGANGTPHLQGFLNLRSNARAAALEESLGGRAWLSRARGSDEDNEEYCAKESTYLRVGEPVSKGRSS
Protocol: (§1)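 A pool of 90-nt single-stranded DNAs with seven random bases just before the constant AC of the nick site (name = the seven bases) was cut by 3 µM recombinant His6-SUMO-tagged Rep nickase domain (300 nM DNA, 50 mM HEPES pH 8.0, 50 mM NaCl, 1 mM MnCl2, 1 h, 37 °C, three replicates). Uncut DNA was amplified and sequenced.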

[2] = tested on: T2, Rep nickase domain of banana bunchy top virus
T2 sequence (Rep 1-94, printed without the tag): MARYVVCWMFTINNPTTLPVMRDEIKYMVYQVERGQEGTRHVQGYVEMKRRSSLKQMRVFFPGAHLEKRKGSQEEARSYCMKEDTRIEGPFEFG
Protocol: as §1

[3] = tested on: T3, Rep nickase domain of cabbage leaf curl virus
T3 sequence (Rep 1-116, printed without the tag): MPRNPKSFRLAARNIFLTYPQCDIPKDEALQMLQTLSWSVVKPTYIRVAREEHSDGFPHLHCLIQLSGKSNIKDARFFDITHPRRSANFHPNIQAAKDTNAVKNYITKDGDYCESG
Protocol: as §1

[4] = tested on: T4, Rep nickase domain of chickpea chlorotic dwarf virus
T4 sequence (Rep 1-124, printed without the tag): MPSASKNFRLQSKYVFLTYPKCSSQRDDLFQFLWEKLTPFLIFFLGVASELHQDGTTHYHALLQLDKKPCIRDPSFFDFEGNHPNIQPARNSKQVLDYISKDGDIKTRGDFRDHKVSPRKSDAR
Protocol: as §1

[5] = tested on: T5, Rep nickase domain of faba bean necrotic yellows virus
T5 sequence (Rep 1-98, printed without the tag): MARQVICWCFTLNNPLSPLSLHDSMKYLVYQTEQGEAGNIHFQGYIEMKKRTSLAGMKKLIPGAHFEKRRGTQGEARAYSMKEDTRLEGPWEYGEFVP
Protocol: as §1

[6] = tested on: T6, Rep nickase domain of maize striate mosaic virus
T6 sequence (Rep 1-117, printed without the tag): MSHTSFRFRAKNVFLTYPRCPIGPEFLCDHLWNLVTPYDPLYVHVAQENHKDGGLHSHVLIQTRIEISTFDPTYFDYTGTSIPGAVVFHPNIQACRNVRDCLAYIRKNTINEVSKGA
Protocol: as §1

[7] = tested on: T7, Rep nickase domain of porcine circovirus 2
T7 sequence (Rep 2-116, printed without the tag): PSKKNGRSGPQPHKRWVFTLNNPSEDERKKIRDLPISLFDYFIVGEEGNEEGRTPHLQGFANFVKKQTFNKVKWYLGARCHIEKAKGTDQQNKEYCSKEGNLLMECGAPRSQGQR
Protocol: as §1

[8] = tested on: T8, Rep nickase domain of tomato yellow leaf curl virus
T8 sequence (Rep 1-136, printed without the tag): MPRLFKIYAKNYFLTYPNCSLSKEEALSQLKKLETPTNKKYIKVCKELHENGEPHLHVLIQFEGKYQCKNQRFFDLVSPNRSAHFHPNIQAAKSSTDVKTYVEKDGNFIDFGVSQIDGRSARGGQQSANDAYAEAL
Protocol: as §1

[9] = tested on: T9, Rep nickase domain of wheat dwarf virus
T9 sequence (Rep 1-137, printed without the tag): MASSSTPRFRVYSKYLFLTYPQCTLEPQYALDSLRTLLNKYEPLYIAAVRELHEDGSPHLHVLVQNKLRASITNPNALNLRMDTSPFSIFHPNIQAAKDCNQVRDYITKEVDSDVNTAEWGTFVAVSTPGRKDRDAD
Protocol: as §1

Sequence	uncleaved DNA left (log2) [1]	uncleaved DNA left (log2) [2]	uncleaved DNA left (log2) [3]	uncleaved DNA left (log2) [4]	uncleaved DNA left (log2) [5]	uncleaved DNA left (log2) [6]	uncleaved DNA left (log2) [7]	uncleaved DNA left (log2) [8]	uncleaved DNA left (log2) [9]
GTCAGTG	0.032	0.102	0.0435	0.464	-0.0105	0.483	0.0939	0.144	-0.0119
CGCCCGT	-0.0136	0.0277	-0.138	-0.262	0.00103	-0.362	0.0478	0.0526	0.0101
CTAGACC	-0.049	-0.0138	0.0284	0.298	-0.141	-0.237	-0.105	-0.0719	0.0315
AGAACGA	0.0118	0.0103	-0.0445	-0.0445	-0.0071	-0.664	0.136	0.0116	-0.0524
ACGCCGT	-0.0797	-0.194	-0.507	-0.821	-0.2	-1.12	-0.00443	-0.154	-0.27
CTTCACC	-0.118	-0.135	-0.0486	-0.717	-0.0709	-0.557	-0.285	-0.0657	-0.125
CTAGAGG	0.0751	0.087	0.366	1.21	0.0319	1.03	0.152	-0.0207	0.00856
TTATCAT	-0.204	0.209	0.417	0.849	-0.0607	1.38	-0.0154	0.15	0.169
CTGTCCC	-0.0198	-0.108	0.0803	0.086	-0.14	0.0293	-0.288	-0.0605	0.0209
ACTAACA	-0.0794	0.00498	-0.626	-2.06	0.0208	-0.886	-0.0513	-0.122	0.00425
GCCTACA	-0.0819	0.0476	-0.134	-1.27	0.0129	0.17	-0.0631	-0.034	0.02
CTCTTGG	0.106	0.0679	-0.381	-0.287	-0.0287	-0.916	0.214	0.0421	0.0481
TGCCCCC	-0.156	-0.181	0.168	0.35	-0.05	0.481	-0.317	-0.00609	-0.0306
CTCCCGG	-0.0143	-0.0237	0.351	1.11	-0.243	1.33	0.0414	-0.188	-0.00559
TCAACAT	0.0814	0.0688	0.489	0.0652	0.0586	0.965	0.17	0.0143	0.0784
GTGTATT	-2.1	-1.05	0.122	0.441	-1.23	1.66	-2.83	0.0448	0.0396
ACCGGGC	-0.18	-0.0558	0.607	0.941	0.0237	1.22	0.119	-0.118	-0.0515
GTGCTGC	-0.0365	-0.0399	0.179	0.545	-0.081	1.25	0.0472	-0.00859	-0.00534
TTACTAC	-2.68	-0.0439	-0.106	-2.64	0.0703	-0.173	-2.58	0.00841	-0.0851
AGCCCCC	0.000891	-0.116	0.5	0.926	-0.0431	1.25	-0.126	-0.0531	0.104

Sequence	uncleaved DNA left (log2) [1]	uncleaved DNA left (log2) [2]	uncleaved DNA left (log2) [3]	uncleaved DNA left (log2) [4]	uncleaved DNA left (log2) [5]	uncleaved DNA left (log2) [6]	uncleaved DNA left (log2) [7]	uncleaved DNA left (log2) [8]	uncleaved DNA left (log2) [9]
TCTCACG	0.00856	-0.137	-0.715	-0.767	0.11	-1.09	0.147	-0.0306	-0.179
GGCATCC	0.019	0.0414	0.642	1.41	0.0295	1.91	0.0325	-0.0277	0.167
TAGACTT	0.0651	-1.09	-0.94	-1.15	-0.828	1.53	-3.5	0.12	0.0231
CTCGATA	-0.0921	0.0235	-0.223	-1.32	0.158	-0.493	-0.242	-0.0281	-0.0946
GGTAATT	-0.049	-0.123	0.569	1.49	-0.145	2.01	-0.066	-0.11	-0.0371
AATGGAT	-0.0147	0.0631	0.254	1.6	-0.0528	1.75	0.0121	-0.171	0.0297
GGGCGGT	0.0601	-0.0647	0.707	1.71	0.0786	2.2	0.143	-0.0604	0.0239
GCAGCGC	-0.0462	-0.0762	-0.705	-0.257	-0.0101	-0.799	0.105	-0.0486	-0.126
TTTTATA	-0.17	-0.0756	0.129	-1.19	0.0353	0.254	-0.274	0.141	-0.0432
TTTCCTC	-0.0247	0.0338	0.198	-0.34	-0.0252	-0.317	-0.58	0.0866	0.0835
GGAGGTA	0.115	0.108	0.673	1.45	0.103	1.99	0.258	0.14	0.123
GACACCC	-0.0728	0.0595	0.221	0.263	-0.0498	0.651	-0.265	-0.038	0.0299
GACCAAT	-0.036	-0.12	0.151	-0.0628	-0.0475	0.746	-0.409	-0.0205	0.0827
CATCCTC	0.0423	-0.0406	0.0305	-0.202	0.0173	-0.437	0.0677	-0.0728	0.0429
AAGCGCA	0.0144	0.0153	0.181	1.18	0.0475	1.16	0.0634	-0.113	0.024
GGCAGAG	0.019	0.0671	0.666	1.46	-0.0111	1.45	0.193	0.126	0.072
TCCCAGT	0.0795	0.0244	0.142	-0.481	0.0446	-0.626	0.116	0.0394	-0.0434
AGTAGAA	0.0995	0.0289	0.279	0.413	0.149	-0.245	-0.356	0.0642	0.0741
TGGTAAA	-0.000177	0.0518	0.386	0.518	-0.0258	0.843	0.167	0.0513	0.0839
TCGTTAA	0.0498	-0.0117	-0.0906	-0.189	0.014	-0.428	-0.198	-0.166	-0.0716

Sequence	uncleaved DNA left (log2) [1]	uncleaved DNA left (log2) [2]	uncleaved DNA left (log2) [3]	uncleaved DNA left (log2) [4]	uncleaved DNA left (log2) [5]	uncleaved DNA left (log2) [6]	uncleaved DNA left (log2) [7]	uncleaved DNA left (log2) [8]	uncleaved DNA left (log2) [9]
CGTCGGT	0.125	0.0191	0.251	0.437	0.11	0.633	0.0364	-0.017	0.0087
CCACGCG	0.119	0.0665	-0.701	0.303	0.0785	-0.47	0.259	0.119	-0.0247
CTGTAAT	-2.24	-0.715	-0.0815	-1.27	-1.07	-0.506	-3.47	0.00549	-0.0801
TAGTACA	-0.473	-0.371	-0.922	-2.53	-1.07	-0.0368	-3.32	0.125	-0.637
GATATTA	0.000441	-0.000713	0.254	0.213	0.0653	1.08	-0.0103	0.0251	0.02
TTGAGAG	0.129	0.0245	-0.366	-0.387	0.0354	-0.914	0.3	0.225	-0.0761
GGTCCAC	0.16	0.272	0.657	1.32	0.148	1.95	0.381	0.229	0.248
GCATTTC	0.081	-0.0454	0.0629	0.313	0.106	-0.402	0.153	0.0684	0.124
TCAAGGA	0.111	0.134	0.106	0.522	0.0651	-0.0816	0.258	0.0478	0.0906
CAACCAG	-0.154	-0.0764	-0.826	-1.15	-0.0219	-1.24	-0.793	-0.0959	-0.204
TTACACT	0.0216	0.0104	-0.911	-2.94	0.00432	-0.682	-0.42	0.0238	-0.307
ATCACCA	-0.0234	-0.0308	-0.187	-0.984	-0.0626	-0.236	-0.184	-0.125	-0.0318
GCGCTAC	0.0361	0.0197	0.153	-0.243	0.0909	0.25	0.193	0.0768	0.11
GGGATAC	0.0366	0.163	0.882	2.06	0.0342	2.14	0.259	0.0595	0.107
TAACCGC	-0.0695	-0.129	-0.46	-1.75	-0.0237	-1.22	-0.339	-0.075	-0.177
TGAAAGA	0.208	0.227	0.219	0.0675	0.158	-0.545	0.169	0.0658	0.215
GGGTACT	-0.161	0.00555	0.753	1.87	-0.105	2.17	-1.48	-0.0612	-0.0332
GCATGTG	0.055	0.00188	-0.646	-0.123	0.00827	-0.751	0.185	0.124	-0.0178
GACCTAG	0.0782	0.149	-0.517	-0.447	0.179	-0.944	0.109	0.211	0.14
CGACCCA	0.045	0.167	0.225	0.319	0.102	0.693	-0.074	0.0782	0.104
